{"source": "the supplement of paper PMC8728848", "binders": {"B1": {"name": "Blon2468mut (Bifidobacterium longum) (protein)", "chain": "MTFIKQMMPRYVASMTAGIVAAAMAATCAFAPVANADAVSPTQETIQSTGRHFMVYYRAWRDVTMKGVNTDLPDDNWISMYDIPYGVDVVNIFSYVPSGQEEQAQPFYDKLKSDYAPYLHSRGIKLVRGIDYTGVAVNGFRTFMKEQNKTESEATEADYDAYAKQVIDKYMISVGLDGLDIDMQAHPNDADVKISDNVIRALSKHIGPKSAKPDTTMFLYDTNGSYLNPFKNVAECFDYVAYQQYGSSSDRTARAAADYQPYIGNEFVPGLTFPEEGDMNNRWYDATEPYEESHFYQVASYVREHNLGGMFVYALDRDGRNYDEDLRRIVPSNLLWTKTAIAESEGMALDTAKTAANHYLDRMSLRQVIDDNAASADKARDMVGKAANLYETNKAVLGGDYGEGFSNTYDPTLEAGLLGIDISVLQQQIDKSSEIIGADTAESDAKTALRMARDAAIDGLTGKIYTADQVSAWSQALKAALDATVPVPTPDSTDQNGNRDKVTNHKVQGQPKQLSATGISTDIIVAVGVTLAIAGVALSLSRKLS"}}, "assay_in_all_cases": "glycan array binding signal (z-score within array); higher = stronger binding", "details_in_all_cases": "glycan notation: IUPAC condensed, linker removed", "key": {"[1]": {"target": "GlcNAc(b1-2)Man(a1-3)[GlcNAc(b1-2)Man(a1-6)]Man(b1-4)GlcNAc(b1-4)GlcNAc", "summary_of_the_method": "(§1)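 Glycan array binding is given as a within-array Z-score, which can be read as non-binding when negative. The arrays, 3228 of them, came from the Consortium for Functional Glycomics database and were retained only where the protein sequence was available. Z-scores were averaged across arrays of the same protein sequence at different concentrations or buffers and across linkers.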"}, "[2]": {"target": "GlcNAc(b1-2)Man(a1-3)[GlcNAc(b1-2)Man(a1-6)]Man(b1-4)GlcNAc(b1-4)[Fuc(a1-6)]GlcNAc", "summary_of_the_method": "as §1"}, "[3]": {"target": "GlcNAc(b1-2)Man(a1-3)[GlcNAc(b1-4)][GlcNAc(b1-2)Man(a1-6)]Man(b1-4)GlcNAc(b1-4)GlcNAc", "summary_of_the_method": "as §1"}, "[4]": {"target": "GlcNAc(b1-2)Man(a1-3)[GlcNAc(b1-4)][GlcNAc(b1-2)Man(a1-6)]Man(b1-4)GlcNAc(b1-4)[Fuc(a1-6)]GlcNAc", "summary_of_the_method": "as §1"}, "[5]": {"target": "GlcNAc(b1-2)[GlcNAc(b1-4)]Man(a1-3)[GlcNAc(b1-2)Man(a1-6)]Man(b1-4)GlcNAc(b1-4)GlcNAc", "summary_of_the_method": "as §1"}, "[6]": {"target": "GlcNAc(b1-2)[GlcNAc(b1-4)]Man(a1-3)[GlcNAc(b1-4)][GlcNAc(b1-2)Man(a1-6)]Man(b1-4)GlcNAc(b1-4)GlcNAc", "summary_of_the_method": "as §1"}, "[7]": {"target": "GlcNAc(b1-2)[GlcNAc(b1-4)]Man(a1-3)[GlcNAc(b1-4)][GlcNAc(b1-2)[GlcNAc(b1-6)]Man(a1-6)]Man(b1-4)GlcNAc(b1-4)GlcNAc", "summary_of_the_method": "as §1"}, "[8]": {"target": "GlcNAc(b1-2)[GlcNAc(b1-4)]Man(a1-3)[GlcNAc(b1-4)][GlcNAc(b1-2)[GlcNAc(b1-6)]Man(a1-6)]Man(b1-4)GlcNAc(b1-4)[Fuc(a1-6)]GlcNAc", "summary_of_the_method": "as §1"}, "[9]": {"target": "GlcNAc(b1-2)[GlcNAc(b1-6)]Man(a1-6)[GlcNAc(b1-2)Man(a1-3)]Man(b1-4)GlcNAc(b1-4)GlcNAc", "summary_of_the_method": "as §1"}, "[10]": {"target": "GlcNAc(b1-2)[GlcNAc(b1-6)]Man(a1-6)[GlcNAc(b1-2)Man(a1-3)]Man(b1-4)GlcNAc(b1-4)[Fuc(a1-6)]GlcNAc", "summary_of_the_method": "as §1"}, "[11]": {"target": "GlcNAc(b1-2)[GlcNAc(b1-6)]Man(a1-6)[GlcNAc(b1-4)][GlcNAc(b1-2)Man(a1-3)]Man(b1-4)GlcNAc(b1-4)GlcNAc", "summary_of_the_method": "as §1"}, "GlcNAc(b1-3)Fuc": {"target": "GlcNAc(b1-3)Fuc", "summary_of_the_method": "as §1"}, "GlcNAc(b1-3)Gal": {"target": "GlcNAc(b1-3)Gal", "summary_of_the_method": "as §1"}, "[12]": {"target": "GlcNAc(b1-3)Gal(b1-3)GalNAc", "summary_of_the_method": "as §1"}, "GlcNAc(b1-3)Gal(b1-4)Glc": {"target": "GlcNAc(b1-3)Gal(b1-4)Glc", "summary_of_the_method": "as §1"}, "[13]": {"target": "GlcNAc(b1-3)Gal(b1-4)GlcNAc", "summary_of_the_method": "as §1"}, "[14]": {"target": "GlcNAc(b1-3)Gal(b1-4)GlcNAc(b1-2)Man(a1-3)[GlcNAc(b1-3)Gal(b1-4)GlcNAc(b1-2)Man(a1-6)]Man(b1-4)GlcNAc(b1-4)GlcNAc", "summary_of_the_method": "as §1"}, "[15]": {"target": "GlcNAc(b1-3)Gal(b1-4)GlcNAc(b1-2)Man(a1-3)[GlcNAc(b1-3)Gal(b1-4)GlcNAc(b1-2)Man(a1-6)]Man(b1-4)GlcNAc(b1-4)[Fuc(a1-6)]GlcNAc", "summary_of_the_method": "as §1"}, "[16]": {"target": "GlcNAc(b1-3)Gal(b1-4)GlcNAc(b1-2)[GlcNAc(b1-3)Gal(b1-4)GlcNAc(b1-6)]Man(a1-6)[GlcNAc(b1-3)Gal(b1-4)GlcNAc(b1-2)Man(a1-3)]Man(b1-4)GlcNAc(b1-4)GlcNAc", "summary_of_the_method": "as §1"}, "[17]": {"target": "GlcNAc(b1-3)Gal(b1-4)GlcNAc(b1-3)Gal(b1-4)GlcNAc", "summary_of_the_method": "as §1"}, "[18]": {"target": "GlcNAc(b1-3)Gal(b1-4)GlcNAc(b1-3)Gal(b1-4)GlcNAc(b1-2)Man(a1-3)[GlcNAc(b1-3)Gal(b1-4)GlcNAc(b1-3)Gal(b1-4)GlcNAc(b1-2)Man(a1-6)]Man(b1-4)GlcNAc(b1-4)GlcNAc", "summary_of_the_method": "as §1"}, "[19]": {"target": "GlcNAc(b1-3)Gal(b1-4)GlcNAc(b1-3)Gal(b1-4)GlcNAc(b1-2)Man(a1-3)[GlcNAc(b1-3)Gal(b1-4)GlcNAc(b1-3)Gal(b1-4)GlcNAc(b1-2)Man(a1-6)]Man(b1-4)GlcNAc(b1-4)[Fuc(a1-6)]GlcNAc", "summary_of_the_method": "as §1"}, "[20]": {"target": "GlcNAc(b1-3)Gal(b1-4)GlcNAc(b1-3)Gal(b1-4)GlcNAc(b1-2)[GlcNAc(b1-3)Gal(b1-4)GlcNAc(b1-3)Gal(b1-4)GlcNAc(b1-6)]Man(a1-6)[GlcNAc(b1-3)Gal(b1-4)GlcNAc(b1-3)Gal(b1-4)GlcNAc(b1-2)Man(a1-3)]Man(b1-4)GlcNAc(b1-4)[Fuc(a1-6)]GlcNAc", "summary_of_the_method": "as §1"}, "[21]": {"target": "GlcNAc(b1-3)Gal(b1-4)GlcNAc(b1-3)Gal(b1-4)GlcNAc(b1-3)Gal(b1-4)GlcNAc(b1-2)Man(a1-3)[GlcNAc(b1-3)Gal(b1-4)GlcNAc(b1-3)Gal(b1-4)GlcNAc(b1-3)Gal(b1-4)GlcNAc(b1-2)Man(a1-6)]Man(b1-4)GlcNAc(b1-4)GlcNAc", "summary_of_the_method": "as §1"}, "[22]": {"target": "GlcNAc(b1-3)Gal(b1-4)GlcNAc(b1-3)Gal(b1-4)GlcNAc(b1-3)Gal(b1-4)GlcNAc(b1-2)Man(a1-3)[GlcNAc(b1-3)Gal(b1-4)GlcNAc(b1-3)Gal(b1-4)GlcNAc(b1-3)Gal(b1-4)GlcNAc(b1-2)Man(a1-6)]Man(b1-4)GlcNAc(b1-4)[Fuc(a1-6)]GlcNAc", "summary_of_the_method": "as §1"}, "[23]": {"target": "GlcNAc(b1-3)Gal(b1-4)GlcNAc(b1-3)Gal(b1-4)GlcNAc(b1-3)Gal(b1-4)GlcNAc(b1-2)[GlcNAc(b1-3)Gal(b1-4)GlcNAc(b1-3)Gal(b1-4)GlcNAc(b1-3)Gal(b1-4)GlcNAc(b1-6)]Man(a1-6)[GlcNAc(b1-3)Gal(b1-4)GlcNAc(b1-3)Gal(b1-4)GlcNAc(b1-3)Gal(b1-4)GlcNAc(b1-2)Man(a1-3)]Man(b1-4)GlcNAc(b1-4)[Fuc(a1-6)]GlcNAc", "summary_of_the_method": "as §1"}, "[24]": {"target": "GlcNAc(b1-3)Gal(b1-4)GlcNAc(b1-3)Gal(b1-4)GlcNAc(b1-3)Gal(b1-4)GlcNAc(b1-3)Gal(b1-4)GlcNAc(b1-2)Man(a1-3)[GlcNAc(b1-3)Gal(b1-4)GlcNAc(b1-3)Gal(b1-4)GlcNAc(b1-3)Gal(b1-4)GlcNAc(b1-3)Gal(b1-4)GlcNAc(b1-2)Man(a1-6)]Man(b1-4)GlcNAc(b1-4)GlcNAc", "summary_of_the_method": "as §1"}, "[25]": {"target": "GlcNAc(b1-3)Gal(b1-4)GlcNAc(b1-3)Gal(b1-4)GlcNAc(b1-3)Gal(b1-4)GlcNAc(b1-3)Gal(b1-4)GlcNAc(b1-2)Man(a1-3)[GlcNAc(b1-3)Gal(b1-4)GlcNAc(b1-3)Gal(b1-4)GlcNAc(b1-3)Gal(b1-4)GlcNAc(b1-3)Gal(b1-4)GlcNAc(b1-2)Man(a1-6)]Man(b1-4)GlcNAc(b1-4)[Fuc(a1-6)]GlcNAc", "summary_of_the_method": "as §1"}, "[26]": {"target": "GlcNAc(b1-3)Gal(b1-4)GlcNAc(b1-3)Gal(b1-4)GlcNAc(b1-3)Gal(b1-4)GlcNAc(b1-3)Gal(b1-4)GlcNAc(b1-2)[GlcNAc(b1-3)Gal(b1-4)GlcNAc(b1-3)Gal(b1-4)GlcNAc(b1-3)Gal(b1-4)GlcNAc(b1-3)Gal(b1-4)GlcNAc(b1-6)]Man(a1-6)[GlcNAc(b1-3)Gal(b1-4)GlcNAc(b1-3)Gal(b1-4)GlcNAc(b1-3)Gal(b1-4)GlcNAc(b1-3)Gal(b1-4)GlcNAc(b1-2)Man(a1-3)]Man(b1-4)GlcNAc(b1-4)[Fuc(a1-6)]GlcNAc", "summary_of_the_method": "as §1"}, "[27]": {"target": "GlcNAc(b1-3)Gal(b1-4)GlcNAc(b1-3)Gal(b1-4)GlcNAc(b1-3)GalNAc", "summary_of_the_method": "as §1"}}, "note": "The other results are listed elsewhere or left out.", "data": [{"binder": "B1", "values": [{"measurement": "glycan array binding signal (z-score)", "setting": "[1]", "value": -0.069}, {"measurement": "glycan array binding signal (z-score)", "setting": "[2]", "value": -0.026}, {"measurement": "glycan array binding signal (z-score)", "setting": "[3]", "value": -0.084}, {"measurement": "glycan array binding signal (z-score)", "setting": "[4]", "value": -0.083}, {"measurement": "glycan array binding signal (z-score)", "setting": "[5]", "value": -0.062}, {"measurement": "glycan array binding signal (z-score)", "setting": "[6]", "value": -0.086}, {"measurement": "glycan array binding signal (z-score)", "setting": "[7]", "value": -0.091}, {"measurement": "glycan array binding signal (z-score)", "setting": "[8]", "value": -0.057}, {"measurement": "glycan array binding signal (z-score)", "setting": "[9]", "value": -0.071}, {"measurement": "glycan array binding signal (z-score)", "setting": "[10]", "value": -0.077}, {"measurement": "glycan array binding signal (z-score)", "setting": "[11]", "value": -0.036}, {"measurement": "glycan array binding signal (z-score)", "setting": "GlcNAc(b1-3)Fuc", "value": -0.07}, {"measurement": "glycan array binding signal (z-score)", "setting": "GlcNAc(b1-3)Gal", "value": -0.088}, {"measurement": "glycan array binding signal (z-score)", "setting": "[12]", "value": -0.045}, {"measurement": "glycan array binding signal (z-score)", "setting": "GlcNAc(b1-3)Gal(b1-4)Glc", "value": -0.061}, {"measurement": "glycan array binding signal (z-score)", "setting": "[13]", "value": -0.09}, {"measurement": "glycan array binding signal (z-score)", "setting": "[14]", "value": -0.052}, {"measurement": "glycan array binding signal (z-score)", "setting": "[15]", "value": -0.061}, {"measurement": "glycan array binding signal (z-score)", "setting": "[16]", "value": -0.046}, {"measurement": "glycan array binding signal (z-score)", "setting": "[17]", "value": -0.083}, {"measurement": "glycan array binding signal (z-score)", "setting": "[18]", "value": -0.057}, {"measurement": "glycan array binding signal (z-score)", "setting": "[19]", "value": -0.036}, {"measurement": "glycan array binding signal (z-score)", "setting": "[20]", "value": -0.043}, {"measurement": "glycan array binding signal (z-score)", "setting": "[21]", "value": -0.062}, {"measurement": "glycan array binding signal (z-score)", "setting": "[22]", "value": -0.069}, {"measurement": "glycan array binding signal (z-score)", "setting": "[23]", "value": -0.074}, {"measurement": "glycan array binding signal (z-score)", "setting": "[24]", "value": -0.05}, {"measurement": "glycan array binding signal (z-score)", "setting": "[25]", "value": -0.052}, {"measurement": "glycan array binding signal (z-score)", "setting": "[26]", "value": -0.038}, {"measurement": "glycan array binding signal (z-score)", "setting": "[27]", "value": -0.065}]}]}
